Data on 84 variants can be found in the RNAGym collection of RNA variant scans (doi:10.7554/elife.90254).

B1: OR4K15 (parent)
chain: GUUAACGGUCAUAGGCCAUGGAAACUAGGAGCACCAUUUCGCUGCCAGUGAAGAAAUGAACAAAGAAAAUCUGGGCCAGGCAGGCAUCAAAAGAAAUAGUCUUGCGCUCAACCAGAAAGUCUGUAAUCAUUUUAAGGGUA

Read counts are not given, so values of variants with three or more changes are uncertain.

This data set covers variants of B1. The data set is described as follows: self-cleavage, relative activity (ratio to wild type); higher = more cleavage; in vitro, sequencing; the parent is a self-cleaving ribozyme.
As for U39C A59G A68G G80A A94G, the self-cleavage came out at 0.25.

Take G41U G74U U122A: the self-cleavage came to 0.27.

Regarding U43A A60G A96G, the self-cleavage is 2.41.

For the variant C42U A54G A92C A96G A116G U124A, the self-cleavage came out at 0.76.

With U43A A62G C81U A117G, the self-cleavage turned out to be 0.36.

Consider U39G U43C A92G, for which the self-cleavage was 1.68.

As to U39C A62G U102C, the self-cleavage was found to be 2.13.

Regarding U39C A52G A78G A90G A94G U103C A111G A117G, the self-cleavage is 0.01.

As for G41A A60G A92G, the self-cleavage worked out at 0.94.

Take U39C A55G A68G A78G A114G: the self-cleavage came to 0.05.

Take U39C U72C A78U U108C: the self-cleavage came to 0.02.

With U39C U43A A68G A69G A82G A117G, the self-cleavage amounted to 0.33.

With U39C A96U U102C, the self-cleavage came to 1.37.

Regarding U39C A66U A116G, the self-cleavage came to 1.04.

Take U39C U43A U130C: the self-cleavage turned out to be 1.92.

Regarding U39A U43C A62G A63G, the self-cleavage was 1.17.

On to U38C U43A A51G A68C C101U U102C A135U, for which the self-cleavage turned out to be 1.48.

For U43A A59G A89U A92G A94G, the self-cleavage was determined as 1.24.

C40U C76U U120C: the self-cleavage amounted to 0.1.

With U38C U102C A110U A118G U132C, the self-cleavage stood at 0.89.

Turning to U39C U87C A116G, the self-cleavage was 0.42.

In the case of U38C U43C A78U, the self-cleavage is 0.37.

With U39C A56G A67G, the self-cleavage turned out to be 1.97.

In the case of U39G A51U A56G, the self-cleavage was 1.55.

For U39A A69U A90G U100C A118G, the self-cleavage was 2.8.

As to U39C A63G U132C, the self-cleavage came out at 1.73.

On to G41U A60U A92G U100C A126G, for which the self-cleavage was found to be 2.16.

Consider U39C A51U A94G, for which the self-cleavage was 1.46.

On to U39C A63G A96G, for which the self-cleavage was found to be 0.52.

Regarding U43A A118G A126G, the self-cleavage came out at 1.5.

Turning to U39C A68G A92G A129U, the self-cleavage was 1.05.

Regarding U39C G41A U70C A78G, the self-cleavage was determined as 0.45.

For U43A A52G A110U A116U, the self-cleavage worked out at 0.12.

Consider C40A A54G A117G, for which the self-cleavage was 2.28.

Take C42U A110U A117G: the self-cleavage was 1.91.

U39C U49A A82G: the self-cleavage stood at 0.52.

U43A A51G A95G U102A U108A: the self-cleavage worked out at 0.02.

On to U39C A56G U70C A89G A114G U131C A135G, for which the self-cleavage came to 0.04.

In the case of U43C A47U A96G, the self-cleavage stood at 1.26.

Turning to U43A A63U A89G, the self-cleavage was 2.31.

Consider C42G A59G U100C U132C, for which the self-cleavage stood at 2.64.

On to U39A A68G A92G U102C, for which the self-cleavage came to 1.78.

Take U39C U49C A54G A116G: the self-cleavage turned out to be 0.22.

As for C42U A56G A78U U131C, the self-cleavage came out at 0.47.

Take U39C C45A U49C U57A U108C: the self-cleavage amounted to 0.02.

Turning to U38G A51U A56G A59U G106A, the self-cleavage was 0.03.

In the case of C42U A55G A68G U122C, the self-cleavage is 1.14.

For the variant U39C A56G A64G U120C, the self-cleavage was 1.8.

On to U43C A51G A62G, for which the self-cleavage was found to be 1.44.

Consider C42A A51U A55G A90G A92G, for which the self-cleavage was 0.53.

Take U39C U43C A63G A95G U122C: the self-cleavage is 1.56.

Regarding U39A A52G A62C, the self-cleavage came to 0.59.

Take U39A U102A U127C: the self-cleavage came to 0.68.

On to U43C A47G A52G A94G A117G A129G, for which the self-cleavage turned out to be 0.43.

As for U39C A55G U100C A114U U132C A135G, the self-cleavage was determined as 0.03.

With U43A A94U U108C U132C, the self-cleavage came to 0.01.

For C40U A69G U87A, the self-cleavage was 1.3.

For U39C U49C A64U, the self-cleavage is 0.65.

On to U38C U43A A55G A62U A94G, for which the self-cleavage was determined as 1.2.

As for U39C A52G A55G U103A U108C U132C, the self-cleavage worked out at 0.01.

In the case of U38G A98G U139C, the self-cleavage stood at 1.15.

On to U43C A51G A92U, for which the self-cleavage was 1.46.

U43A A55G A60G A89U A125G: the self-cleavage came to 0.69.

In the case of G41A U43C A51G, the self-cleavage was determined as 1.58.

Regarding U39C A94G A135G, the self-cleavage is 1.38.

For the variant U39C A78U U87C U102G, the self-cleavage turned out to be 0.03.

Regarding G41A C61U A68G A117G U122C, the self-cleavage came out at 2.53.

Turning to U38C U124C A125G U130C, the self-cleavage stood at 1.3.

Regarding G41A G44U A47G A54C A60G, the self-cleavage amounted to 1.06.

In the case of C42U C107A A110G, the self-cleavage stood at 0.02.

As to U39C A89G A118U, the self-cleavage came out at 1.1.

As to C40A A63U A89G, the self-cleavage worked out at 1.52.

For U39C A55U G93A, the self-cleavage stood at 0.37.

With U39C A67G A126U, the self-cleavage came out at 0.76.

Consider U39C A62G A69C C112U, for which the self-cleavage is 0.03.

For G41A A52G A56G, the self-cleavage was 0.9.

Regarding U39C U87C A116G A129G, the self-cleavage came to 0.4.

Take U39C A89U A92G: the self-cleavage was 1.62.

With U39C A60G U120C, the self-cleavage was determined as 0.98.

On to U39C A68G U132C, for which the self-cleavage stood at 2.06.

As for U39C A60G U122A, the self-cleavage amounted to 0.82.

For U39C U87C U122C, the self-cleavage came out at 1.69.

Consider U43A A51G A116G, for which the self-cleavage was found to be 0.26.

With U39C U57C A67G A135G, the self-cleavage is 1.87.
